Experimental data reported in PubChem BioAssay AID463173 (ICCB-Longwood Screening Facility, Harvard Medical School, 2010).
The campaign covered roughly 52,000 compounds. About 4,300 (8.3%) were called active. No stated cut-off is given here; in the data, active means survival mostly below about 52% (no sharp cut-off); inactive means mostly above about 56%. This is one part of the list.

Tested on: DeltatarO mutant
Assay: growth inhibition of S. aureus wild type versus tarO mutant, primary screen, teichoic acid synthesis inhibitors, RN4220, OD600 (AID 463173)
Settings: OD600, 18 h, hits give low values, screened at 18.75 µg/mL (by protocol)

| SMILES | survival |
| --- | --- |
| Cc1cc(Nc2ccc(C(=O)O)cc2)nc(N)n1 | inactive: 94% |
| CCCCC(=O)Nc1cc2nn(-c3ccc(OCC)cc3)nc2cc1C | inactive: 70% |
| Cc1oc(CC(C)C)cc1C(=O)O | inactive: 104% |
| CCS(=O)(=O)N1CCC(NC(=O)c2ccccc2Cl)CC1 | inactive: 77% |
| Cc1ccc(Cl)cc1N1CCN(CCCNC(=O)c2nnc(Cc3cccc(Cl)c3)o2)CC1 | active: 25% |
| O=C(Nc1cccc(F)c1)c1cccc2c1C(=O)N(C1CCCCC1)C2 | inactive: 71% |
| CCC(=O)N1CCCc2cc(S(=O)(=O)N3CCC(C(=O)Nc4ccccc4CC)CC3)ccc21 | inactive: 129% |
| Cc1ccccc1Nc1cc(C(=O)NCCc2ccc(Cl)cc2)c2ccccc2n1 | inactive: 76% |
| CCCC(=O)Nc1c2c(nc3ccccc13)N(c1ccccc1)CC2 | inactive: 81% |
| Cn1c(O)c(C=NCC2CCN(C(=S)Nc3ccccc3)CC2)c(=O)n(C)c1=O | inactive: 98% |
| COC(=O)Cc1c(C)c2ccc3c(c2oc1=O)CN(Cc1ccccc1OC)CO3 | inactive: 111% |
| CC(CNC(=O)Cn1c(-c2cccs2)cc2ccccc21)c1ccccc1 (stereo not given) | inactive: 100% |
| CCC(=O)N1CCc2cc(Br)cc(S(=O)(=O)N3CCCC(C(=O)NCc4ccc(OC)cc4)C3)c21 (stereo not given) | inactive: 93% |
| CCc1ccccc1NC(=O)CSc1ncc(S(=O)(=O)c2ccccc2)c(=O)[nH]1 | inactive: 93% |
| CCc1ccc(N(C(=O)c2ccco2)C(C(=O)NC2CCCC2)c2ccncc2)cc1 (stereo not given) | inactive: 94% |
| Cc1cccc(OCC(=O)Nc2ccc(Cl)c(-c3nc4ccccc4[nH]3)c2)c1 | active: 38% |
| O=S(=O)(c1ccc(F)cc1)n1cccc1 | inactive: 84% |
| CCCOc1ccc(NC(=O)CC2C(=O)N(c3ccc(Cl)cc3)C(=O)N2CCc2ccncc2)cc1 (stereo not given) | inactive: 106% |
| CC1=C(c2ccc(C)c(C)c2)S(=O)(=O)N=C1N1CCC(C(=O)Nc2cccc(F)c2)CC1 | inactive: 79% |
| COc1cccc(NC(=O)CSc2nnc(-c3cccs3)o2)c1 | inactive: 52% |
| COc1ccccc1NC(=O)Cn1c(=O)n(-c2cccc(Cl)c2)c(=O)c2c1c1cc(C)ccc1n2C | inactive: 77% |
| CN1CCc2nc3sc(C(=O)Nc4cccc(C#N)c4)c(N)c3cc2C1 | active: 54% |
| CC(C)C(c1nnnn1CCc1ccccc1)N1CCCC1 (stereo not given) | inactive: 84% |

| SMILES | survival |
| --- | --- |
| Cc1cc(C)cc(Nc2nnc(-n3nc(C)cc3C)c3ccccc23)c1 | inactive: 80% |
| COc1ccc(NC(=O)CN2C(=O)COc3ccc(S(=O)(=O)N4CCCCC4)cc32)cc1Cl | inactive: 83% |
| O=C(CN1C(=O)CSc2ccc(S(=O)(=O)N3CCCC3)cc21)NCc1ccc(Cl)cc1 | inactive: 65% |
| COc1ccc(NC(=O)c2oc3ccccc3c2NC(=O)Cc2cccs2)cc1 | inactive: 96% |
| CCOC(=O)c1cnc2ccc(C)cc2c1NCCc1ccc(OC)c(OC)c1 | inactive: 136% |
| Cc1ccc(NC(=O)c2sc3nc(-c4ccc(F)cc4)ccc3c2N)cc1F | inactive: 60% |
| CC1CCCCC1NC(=O)CN1CCC(NC(=O)c2cccc(F)c2)CC1 (stereo not given) | inactive: 85% |
| COc1ccc(C)cc1NC(=O)N1CCN(c2cc(-c3noc(C)n3)ccc2C)CC1 | inactive: 88% |
| O=S(=O)(Cc1ccccc1)N1CCN(Cc2ccco2)CC1 | inactive: 68% |
| CCSC(=C(C#N)C#N)c1cc2c([nH]1)CCCC2 | active: 45% |
| O=C(CC1C(=O)N(c2ccccc2)C(=O)N1Cc1ccc2c(c1)OCO2)Nc1ccccc1 (stereo not given) | inactive: 87% |
| Cc1c(C)n(Cc2ccc(F)cc2)c2ccc(C(=O)Nc3ccc(Cl)cc3)cc12 | inactive: 76% |
| Cc1ccc(-c2cc3c(n2-c2ccccc2F)CC(C)(C)CC3=O)cc1 | inactive: 101% |
| C=C(C)c1nc2cc(OC)c(OC)cc2c(=O)o1 | inactive: 94% |
| O=C1CC(c2nnc(Cc3ccccc3Cl)o2)CN1c1ccccc1 (stereo not given) | inactive: 131% |
| CCOC(=O)c1ccc(CN(Cc2ccccc2C)S(=O)(=O)c2ccc(F)c(C(=O)Nc3cccc(OC)c3)c2)cc1 | inactive: 75% |
| C[n+]1ccccc1C(O)Cc1ccncc1 (stereo not given) | inactive: 94% |
| Cc1ccc(C)c(Cn2c(=O)n(CCCCCC(=O)NCc3ccc4c(c3)OCO4)c(=O)c3sccc32)c1 | inactive: 98% |
| CC(=O)c1ccc(NC(=O)CCCc2nc(-c3cccc(C)c3)no2)cc1 | inactive: 69% |
| O=C(Cn1cc(C(=O)C2CC2)c2ccccc21)Nc1ccc(Br)cc1 | inactive: 95% |
| COc1ccccc1N1CCN(c2ccc(-c3nc(-c4ccccc4)no3)cc2[N+](=O)[O-])CC1 | inactive: 77% |
| CCC1CCCCN1CCCNC(=O)c1ccc2c(c1)N(Cc1ccc(Cl)cc1)C(=O)c1ccccc1S2(=O)=O (stereo not given) | inactive: 120% |
| CCN1C(=O)/C(=C2/Sc3ccc(OC)cc3N2CC)SC1=Nc1ccc2c(c1)OCCO2 | inactive: 91% |

| SMILES | survival |
| --- | --- |
| COc1ccc(N2CCN(C(=O)CN(C)S(=O)(=O)c3cccs3)CC2)cc1 | inactive: 110% |
| COc1cccc(Nc2sc(C(=O)c3ccc(F)cc3)c(N)c2C(=O)NCc2ccc(C)cc2)c1 | inactive: 91% |
| COc1ccc(Cn2ccnc2SCC(=O)Nc2cc(C(F)(F)F)ccc2Cl)cc1 | inactive: 81% |
| CCN(CC)C(=O)Cn1c(=O)cc(C)c2c(C)nn(C)c21 | inactive: 124% |
| CCOC(=O)c1ccccc1NC(=O)c1sc2ccccc2c1Cl | active: 36% |
| COc1ccc(-c2cn3nc(N4CCCC(C(=O)NCc5ccccc5C)C4)sc3n2)cc1 (stereo not given) | inactive: 69% |
| Cc1ccccc1-n1c(=O)c2c3c(sc2n2cnnc12)CCCC3 | inactive: 72% |
| COc1ccc(CNC(=O)C2CCN(c3nnc(-n4cccc4CNc4ccc(C)cc4)s3)CC2)c(OC)c1 | inactive: 70% |
| Cc1ccc(S(=O)(=O)c2nc(-c3cccc(C)c3)oc2N2CCCCC2)cc1 | active: 6% |
| O=S(=O)(c1ccc(F)cc1)N1CCC(n2c(C(F)(F)F)nc3cccnc32)CC1 | inactive: 87% |
| COC(=O)c1ccc2c(c1)N(CC(=O)Nc1cccc(C(F)(F)F)c1)C(=O)c1ccccc1S2 | inactive: 91% |
| O=C(CSc1nc2c([nH]c3ccccc32)c(=O)n1-c1ccccc1F)Nc1ccccc1C(F)(F)F | inactive: 67% |
| CC1CCC[S+](c2cc(O)ccc2O)C1 (stereo not given) | inactive: 66% |
| O=C(CN(CCc1ccccc1)S(=O)(=O)c1ccccc1)NCc1ccc(Cl)cc1 | inactive: 62% |
| Cc1ccc(Cl)cc1N1CCN(C(=O)c2cc(S(=O)(=O)N3CCCCCC3)cn2C)CC1 | inactive: 76% |
| Cc1cc(Cl)ccc1Nc1ncnc2onc(C)c12 | inactive: 68% |
| O=C(Nc1ccccc1Cl)C1CCN(c2nc3ccccc3[nH]2)CC1 | inactive: 102% |
| COc1cccc(NC(=O)CSCn2nnc3c(=O)[nH]c(Cc4ccc(F)cc4)nc32)c1 | inactive: 61% |
| Nc1cc(=O)[nH]c(SCC(=O)N(c2ccccc2)c2ccccc2)n1 | inactive: 87% |
| Fc1ccccc1OCc1nc(-c2ccc(-n3cccc3)cc2)no1 | inactive: 75% |
| Oc1c(CN2CCOCC2)cc(CN2CCOCC2)cc1CN1CCOCC1 | inactive: 98% |
| CCOC(=O)c1cc(-c2ccccc2)n(CCC(=O)Nc2ccc(C)cc2Cl)c1C | inactive: 89% |
| Cc1ccc2c(c1)C(=O)C(=O)N2Cc1ccc(OC(C)C)cc1 | inactive: 120% |

| SMILES | survival |
| --- | --- |
| COc1ccc(CNc2nccs2)cc1OC | inactive: 103% |
| COc1ccc(OC)c(S(=O)(=O)N2Cc3ccccc3CC2C(=O)Nc2ccc(Cl)cc2)c1 (stereo not given) | inactive: 57% |
| CCOc1ccc(-c2nn(-c3ccccc3)cc2C2NC(=O)NC(C)=C2C(=O)OC(C)C)cc1C (stereo not given) | inactive: 64% |
| Cc1cc(C)cc(NC(=O)CCS(=O)(=O)c2ccc3nc(C)sc3c2)c1 | inactive: 50% |
| O=C1C(c2ccc(F)cc2)N(Cc2ccccc2Cl)C(=O)CN1C1CCCCC1 (stereo not given) | inactive: 81% |
| Cc1ccc(C(=O)N2CCC(N3CCN(Cc4ccc(F)cc4)C(=O)C3=O)CC2)cc1 | inactive: 71% |
| Cc1ccc(-n2nc(CO)c(C(=O)NCCCCc3ccccc3)n2)cc1 | inactive: 102% |
| CC(C)(C)n1nnnc1C(c1ccccn1)N1CCN(c2cccc(C(F)(F)F)c2)CC1 (stereo not given) | inactive: 90% |
| Cc1ccc2c(c1)CC(C)N2S(=O)(=O)c1nnc(NC(=O)c2ccccc2F)s1 (stereo not given) | active: 9% |
| CC(C)c1ccccc1NC(=O)CN(c1ccccc1)S(=O)(=O)N(C)C | inactive: 81% |
| CCOC(=O)c1ccc(NC(=O)C2CC(=O)N3CCCN=C3S2)cc1 (stereo not given) | inactive: 94% |
| O=C(NCCCN1CCN(c2ccc(F)cc2)CC1)c1sc2ncccc2c1-n1cccc1 | active: 37% |
| CCOc1ccc(CNC(=O)c2[nH]c3ccccc3c2Sc2ccc(C)cc2)cc1 | inactive: 105% |
| Cc1ccc(C(=O)Nc2nc(-c3nnn(-c4cccc(Cl)c4C)c3C)ns2)cc1C | inactive: 124% |
| COc1cccc(-c2nc(CS(=O)(=O)CC(=O)NCCc3ccc(OC)c(OC)c3)c(C)o2)c1 | inactive: 72% |
| Cn1c(=O)c2c(n3ncnc13)NC(=O)CC2c1cccc(F)c1 (stereo not given) | inactive: 66% |
| COc1ccc(NS(=O)(=O)c2ccc3c(c2)CC(C)N3C(C)=O)c(OC)c1 (stereo not given) | inactive: 77% |
| CCOC(=O)C1=C(CN2CCN(c3cccc(OC)c3)CC2)NC(=O)NC1c1ccc(OC)cc1 (stereo not given) | inactive: 88% |
| C=Cc1ccc(CSc2nnc(C)n3c2cc2occc23)cc1 | active: 42% |
| COc1ccc(NC(=O)c2oc3c(c2C)-c2nn(Cc4ccccc4Cl)cc2CC3)cc1OC | active: 53% |
| Cc1ccc(-n2c(=O)c3c(cnn3C)n(CC(=O)Nc3c(C)cccc3C)c2=O)cc1 | inactive: 85% |
